From the supplement of paper PMC3334620
Over roughly 33,000 sequences, “E-score (-0.5 to 0.5)” has its median near -0.04; the highest 2% begin near 0.36. The list shows a part of the results.

molecular target: T1, Hmlalpha2 (UniProt P0CY09); test: PBM E-score (8-mer binding enrichment) (E-score (-0.5 to 0.5)); higher = stronger / more preferred TF binding; most listed sequences are background and not binding sites; conditions: protein concentration: 200 nM; construct: GST-full length
T1 sequence: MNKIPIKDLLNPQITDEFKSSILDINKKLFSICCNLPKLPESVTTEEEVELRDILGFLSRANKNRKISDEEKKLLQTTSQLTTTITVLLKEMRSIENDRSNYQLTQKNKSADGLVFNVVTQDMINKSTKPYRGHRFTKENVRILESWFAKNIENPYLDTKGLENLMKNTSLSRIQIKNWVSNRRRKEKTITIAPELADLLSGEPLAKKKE
How it was run: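 Each ungapped eight-base word and its reverse complement, pooled, received an E-score from the Universal PBM Analysis Suite. Underlying scans, normalised with masliner, recorded fluorescent anti-GST bound to GST-tagged yeast transcription factors. These were applied at about 100-200 nM to universal all-10-mer Agilent arrays double-stranded by primer extension.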

Sequence | PBM E-score
AACTGGGT | -0.204
ACCTTCCG | -0.0549
AAATGCCC | -0.272
CTATTAGC | 0.0641
ACGATTTG | 0.0768
CGTCTGAA | -0.132
AATTTTAA | 0.185
CTGGCTTA | 0.0278
GGTTCGCA | -0.228
GGTAAAGA | 0.0828
CTGTACCC | -0.12
ATTAAATG | 0.226
ATAGCCAA | -0.0102
GCGGTGCA | -0.281
AATGAGTA | 0.133
CACTGGAG | -0.26
AGGAGCCT | -0.197
ACAGCGTC | 0.205
ATCAGCAG | -0.0801
CGGACGCC | -0.103
GCTTGGGA | -0.206
ACATCCGG | -0.0857
AATGGCCT | -0.191
GGATGGAA | -0.175
ATTTAATC | 0.185

Sequence | PBM E-score
TTCCGAAA | -0.139
CCAAGTTA | 0.156
ATCATAAA | -0.0128
GGGTCCAA | -0.221
CGGACCTA | -0.0259
GGAATAAA | 0.0869
TAAGTACA | 0.357
CATTTTCA | 0.102
ACACTCCC | -0.153
GGTCCGTA | -0.192
CAGGAATA | -0.0371
CAGACTAC | 0.0523
CTTAATTA | 0.163
ATAGACTC | -0.183
CAACCTTA | 0.101
GAGTAGCA | -0.0964
CAAGCCAA | 0.12
TAGTCCAA | -0.0113
ACACAGCG | 0.424
AGGCCTGG | -0.127
CGTTCCAC | -0.0969
TCGTTCCA | -0.0169
ATGTTTGC | 0.166
ATTAAAGA | 0.162
ACATCGTA | 0.174

Sequence | PBM E-score
AGTACTGG | -0.163
ACATACGA | 0.305
TCCGTGCA | 0.0644
GTGATGGA | -0.0828
CGGCCTAG | -0.322
CTAAAACC | 0.0222
ACGTACGT | 0.257
ACTACTCA | 0.144
ACCGAGCG | -0.0607
CGCGTCGA | 0.191
ACAGCACG | 0.0953
AAAGGCAC | -0.0122
AGTACAAG | 0.267
AACACCAA | 0.27
ATCATTTC | 0.0324
ATACAACG | 0.185
ACGAAACC | 0.107
CAGGTCGA | 0.0589
ACTTCTCG | -0.039
AACTCGTC | 0.0855
AAGTTGAG | -0.0333
GGATTCGA | -0.0532
AAGACTGT | -0.0384
CCATTTAA | 0.078
AGAAAAAA | -0.0182

Sequence | PBM E-score
ATCCTTGG | -0.0413
CACTCAGC | -0.236
GCACCGAA | -0.0611
AATTCGAG | -0.12
AGGGGCAA | -0.27
AGTGTTGA | 0.238
AAGTGATG | 0.0279
CAGGGTTC | -0.185
CATTGGGG | -0.143
AAAGCGAA | -0.132
ATCCATTC | -0.106
AGTCTAGG | -0.15
GGTATTAC | 0.257
GGGACCGA | -0.078
CGTACTGC | -0.0317
AATACCCA | -0.0463
AAACAAGG | 0.152
TATTTAAA | 0.207
GTAAGACA | 0.202
AATTGCAC | 0.112
AGTTCCAA | 0.0608
GCAACGGA | -0.00487
GTTTGAGA | 0.0411
TAAGCAAA | 0.23
CAGTACCG | -0.142

Sequence | PBM E-score
ATAGAAGC | 0.0922
CGTAGAAC | 0.181
AACTCACC | -0.157
ACAATCTC | 0.00032
GAAAAATC | -0.0357
CTGTCTAC | 0.0394
GACGTTTA | 0.177
AGGATGTA | 0.322
ACTGGCCG | -0.29
GTCCTGGA | -0.18
ACCTGTAT | 0.122
AAAATCGG | -0.183
GACGATGA | -0.0124
CCGCGTTC | 0.106
AGCGGTAG | -0.168
CAGGGGGC | -0.225
GCCCGCGA | -0.214
CTTCTCCA | -0.351
AGGGTCCG | -0.352
ACAGGTGA | -0.0115
AGTTCCCA | -0.0155
CATATCGG | -0.112
TGTGTCAA | 0.359
CAGGACGC | -0.0259
CAAATATA | -0.0151

Sequence | PBM E-score
CGCGATGC | -0.121
CTATGCAG | 0.0895
AAAATTGT | 0.126
AAGAGGAT | -0.0956
ACAAGATC | 0.254
TACTGGCA | -0.199
GAGGGCAA | -0.235
TACTCGGA | 0.0815
CACCTAGA | -0.19
AACCTACA | 0.252
AGGAACAC | 0.134
AGTCATTC | -0.124
ATGCGACG | -0.0756
CTTACGAA | 0.108
AGGTAGTA | 0.0867
CAGCCCGA | -0.28
ACGCAGCG | 0.132
CGATGGAA | -0.138
AACACTGG | 0.0539
ACTCTTCC | -0.111
ATTCATCA | -0.0286
ACAGCCAG | 0.0764
GAGTAGAA | 0.147
ATAAGAGC | -0.0531
GAAGACCA | -0.262

Sequence | PBM E-score
CGGAAGGC | -0.281
ACGCGGCC | 0.14
GCGCACCA | -0.0433
CCTGCTAA | -0.186
AGCCGTAA | 0.11
TCTAAACA | 0.228
GTATGTCA | 0.352
GAGCAGCC | -0.0273
AGGCCGTA | 0.0986
CGCATGCA | 0.145
AGCGGTGA | -0.218
AGTAATAA | 0.257
ACTAAGAG | -0.043
GATTTCGA | -0.165
CAGAACAG | -0.0998
AGAAAGAC | -0.222
GAAATGCC | -0.23
CAGTACAC | 0.315
CATAAGTC | 0.00763
CTACATCC | 0.186
AATAGTGC | -0.0407
GGACGTCC | -0.113
